Test [1] concerns the target T1, murine PDGF-Rβ (mouse, UniProt P05622 32-530, limits assumed).
T1 construct: Immobilised on an SPR surface; also called mouse PDGF-R beta; mPDGF-Rβ
T1 sequence (looked up): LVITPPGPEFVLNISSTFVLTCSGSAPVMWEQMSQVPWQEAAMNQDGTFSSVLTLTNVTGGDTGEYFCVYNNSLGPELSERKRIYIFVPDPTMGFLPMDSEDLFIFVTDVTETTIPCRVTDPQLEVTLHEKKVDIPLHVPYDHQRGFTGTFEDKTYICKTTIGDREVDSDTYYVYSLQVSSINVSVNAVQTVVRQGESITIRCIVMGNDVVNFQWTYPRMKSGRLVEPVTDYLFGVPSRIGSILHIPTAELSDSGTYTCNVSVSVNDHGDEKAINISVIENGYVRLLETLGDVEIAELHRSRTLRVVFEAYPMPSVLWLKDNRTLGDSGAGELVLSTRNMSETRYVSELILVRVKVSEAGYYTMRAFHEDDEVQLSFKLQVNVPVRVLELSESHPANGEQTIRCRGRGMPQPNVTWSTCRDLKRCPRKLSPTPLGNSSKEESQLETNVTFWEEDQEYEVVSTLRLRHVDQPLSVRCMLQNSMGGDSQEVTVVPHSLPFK
Nature of the test: SPR (BIAcore); column 'Affinity (mouse)'.

Test [2] addresses T2, human PDGF-Rβ (human, UniProt P09619 33-530, limits assumed).
T2 construct: Immobilised on an SPR surface ('PDGF-Rβ-functionalized surfaces'); also called hPDGF-Rβ; human PDGF-R beta
Briefly: SPR (BIAcore); column 'Affinity (human)'.

Test [3] deals with T1, murine PDGF-Rβ. Briefly: SPR (BIAcore); column 'Affinity (mouse)', cells shifted one column. In general terms: In SPR one partner is held on a chip, and binding of the other changes the refractive index at the surface.
For test [4], the target named is T2, human PDGF-Rβ. Briefly: BIAcore, by Affibody AB.
In test [5] the target is T1, murine PDGF-Rβ. Briefly: BIAcore, by Affibody AB; murine target; murine target.
Test [6] concerns the target T3, human PDGF-Rα (human, UniProt P16234 24-524, limits assumed).
T3 construct: also called hPDGF-Rα
Briefly: SPR, human PDGF-Rα surface per legend paragraph 14, Z2465 injected; concentrations not given.

Test [7] deals with T2, human PDGF-Rβ. Briefly: column 'Affinity (human)'; value is an estimate based on the avidity effect, not a fitted SPR value.
The target in test [8] is T1, murine PDGF-Rβ. Nature of the test: column 'Affinity (mouse)', cells shifted one column; value is an estimate based on the avidity effect.

The text below walks through data of patent US20090191124A1 (GENERAL ELECTRIC, published 2009).

B1: Ztaq (SEQ. ID NO. 10) control (designed binder)
chain: GSSHHHHHHYYLEVDNKFNKELGWATWEIFNLPNLNGVQVKAFIDSLRDDPSQSANLLAEAKKLNDAQAPKVDC
modifications: C-terminal cysteine thiol blocked with N-ethyl maleimide (NEM)
notes: His6-tagged Z-domain (Affibody) polypeptide used as negative control; also called control polypeptide; non-targeted Ztaq polypeptide
As for B1, the binding result in test [1] and in test [2] was “no binding” each time.

B2: Z2483 (SEQ. ID NO. 18) (designed binder)
chain: GSSHHHHHHLQVDNKFNKELVKAAAEIDALPNLNRRQWNAFIKSLVDDPSQSANLLAEAKKLNDAQAPKVDC
modifications: C-terminal cysteine thiol blocked with N-ethyl maleimide (NEM)
notes: His6-tagged Z-domain (Affibody) polypeptide
Regarding B2, the Kd was found to be 0.4 nM in test [2] and 6 nM in test [3].

B3: Z2465 (SEQ. ID NO. 16) (designed binder)
chain: GSSHHHHHHLQVDNKFNKELIEAAAEIDALPNLNRRQWNAFIKSLVDDPSQSANLLAEAKKLNDAQAPKVDC
modifications: C-terminal cysteine thiol blocked with N-ethyl maleimide (NEM)
notes: His6-tagged Z-domain (Affibody) polypeptide, monomer; also called His6-Z2465
Regarding B3, the Kd in test [4] was 0.6 nM; in test [5], roughly 4 nM; in test [2], 0.5 nM; in test [3] it was 7 nM. Moreover, the binding result in test [6] is “no binding”.

B4: Z2516 (SEQ. ID NO. 17) (designed binder)
chain: GSSHHHHHHLQVDNKFNKELVRAAEEIDNLPNLNRKQWNAFIKSLVDDPSQSANLLAEAKKLNDAQAPKVDC
modifications: C-terminal cysteine thiol blocked with N-ethyl maleimide (NEM)
notes: as for B2
Consider B4, for which, in test [2], the Kd is less than 1 nM.

B5: Z1982 (SEQ. ID NO. 14) (designed binder)
chain: GSSHHHHHHLQVDNKFNKELVRAAQEIDELPNLNRGQWNAFIKSLVDDPSQSANLLAEAKKLNDAQAPKVDC
modifications: C-terminal cysteine thiol blocked with N-ethyl maleimide (NEM)
notes: as for B2
B5: the results for the Kd in test [2] and in test [3] were 4 nM and 27 nM, respectively.

B6: Z2477 (SEQ. ID NO. 25) (designed binder)
chain: GSSHHHHHHLQVDNKFNKELIAAAAEIDRLPNLNRVQWNAFIKSLVDDPSQSANLLAEAKKLNDAQAPKVDC
modifications: C-terminal cysteine thiol blocked with N-ethyl maleimide (NEM)
notes: as for B2
For B6, the Kd in test [2] was less than 1 nM.

B7: (Z2465)2 (SEQ. ID NO. 19) (designed binder)
chain: GSSHHHHHHLQVDNKFNKELIEAAAEIDALPNLNRRQWNAFIKSLVDDPSQSANLLAEAKKLNDAQAPKVDNKFNKELIEAAAEIDALPNLNRRQWNAFIKSLVDDPSQSANLLAEAKKLNDAQAPKVDC
modifications: C-terminal cysteine thiol blocked with N-ethyl maleimide (NEM)
notes: Head-to-tail dimer of Z2465 on a single His6-tagged chain; also called Z2465 dimer; bivalent Z2465
For B7, the Kd in test [7] was less than 0.5 nM; in test [8], less than 7 nM.
